# From the supplement of paper PMC8728848
# The other results are listed elsewhere or left out.
# Columns and labels:
# Assay in all cases: glycan array binding signal (z-score within array); higher = stronger binding
# Conditions in all cases: glycan notation: IUPAC condensed, linker removed
# [1] = molecular target: Gal(b1-4)GlcNAc(b1-2)[Gal(b1-4)GlcNAc(b1-4)]Man(a1-3)[Gal(b1-4)GlcNAc(b1-2)Man(a1-6)]Man(b1-4)GlcNAc(b1-4)GlcNAc
# Method in brief: (§1)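 The binding signal is a Z-score computed within each array. Data were drawn from 3228 arrays in the Consortium for Functional Glycomics database, restricted to those with a known protein sequence. Scores were averaged over arrays of the same protein sequence at different concentrations or buffers, and over linkers, and negative values can be taken as non-binding.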
# [2] = molecular target: Gal(b1-4)GlcNAc(b1-3)Gal(b1-3)GlcNAc
# Method in brief: as §1
# [3] = molecular target: Gal(b1-4)GlcNAc(b1-3)Gal(b1-4)Glc
# Method in brief: as §1
# [4] = molecular target: Gal(b1-4)GlcNAc(b1-3)Gal(b1-4)GlcNAc
# Method in brief: as §1
# [5] = molecular target: Gal(b1-4)GlcNAc(b1-3)Gal(b1-4)GlcNAc(b1-3)Gal(b1-4)GlcNAc
# Method in brief: as §1
# [6] = molecular target: Gal(b1-4)GlcNAc(b1-3)Gal(b1-4)[Fuc(a1-3)]GlcNAc(b1-3)Gal(b1-4)[Fuc(a1-3)]GlcNAc
# Method in brief: as §1
# [7] = molecular target: Gal(b1-4)GlcNAc(b1-3)GalNAc
# Method in brief: as §1
# [8] = molecular target: Gal(b1-4)GlcNAc(b1-3)[Gal(b1-4)GlcNAc(b1-6)]Gal(b1-4)GlcNAc
# Method in brief: as §1
# [9] = molecular target: Gal(b1-4)GlcNAc(b1-3)[GlcNAc(b1-6)]Gal(b1-4)GlcNAc
# Method in brief: as §1
# [10] = molecular target: Gal(b1-4)GlcNAc(b1-6)Gal(b1-4)GlcNAc
# Method in brief: as §1
# [11] = molecular target: Gal(b1-4)GlcNAc(b1-6)Gal(b1-4)GlcNAc(b1-6)GalNAc
# Method in brief: as §1
# [12] = molecular target: Gal(b1-4)GlcNAc(b1-6)GalNAc
# Method in brief: as §1
# [13] = molecular target: Gal(b1-4)GlcNAc(b1-6)[Gal(b1-3)]GalNAc
# Method in brief: as §1
# [14] = molecular target: Gal3S(b1-3)GalNAc
# Method in brief: as §1
# [15] = molecular target: Gal3S(b1-3)GlcNAc
# Method in brief: as §1
# [16] = molecular target: Gal3S(b1-3)[Fuc(a1-4)]GlcNAc
# Method in brief: as §1
# [17] = molecular target: Gal3S(b1-4)Glc
# Method in brief: as §1
# [18] = molecular target: Gal3S(b1-4)Glc6S
# Method in brief: as §1
# [19] = molecular target: Gal3S(b1-4)GlcNAc
# Method in brief: as §1
# [20] = molecular target: Gal3S(b1-4)GlcNAc6S
# Method in brief: as §1
# [21] = molecular target: Gal3S(b1-4)[Fuc(a1-3)]Glc
# Method in brief: as §1
# [22] = molecular target: Gal3S4S(b1-4)GlcNAc
# Method in brief: as §1
# [23] = molecular target: Gal3S6S(b1-4)GlcNAc
# Method in brief: as §1
# [24] = molecular target: Gal3S6S(b1-4)GlcNAc6S
# Method in brief: as §1
# [25] = molecular target: Gal4S(b1-4)GlcNAc
# Method in brief: as §1
# [26] = molecular target: Gal4S6S(b1-4)GlcNAc
# Method in brief: as §1
# [27] = molecular target: Gal6S(b1-4)Glc
# Method in brief: as §1
# [28] = molecular target: Gal6S(b1-4)Glc6S
# Method in brief: as §1
# [29] = molecular target: Gal6S(b1-4)GlcNAc
# Method in brief: as §1
# [30] = molecular target: Gal6S(b1-4)GlcNAc6S
# Method in brief: as §1
# [31] = molecular target: GalNAc(a1-3)Gal
# Method in brief: as §1
# [32] = molecular target: GalNAc(a1-3)GalNAc
# Method in brief: as §1
# [33] = molecular target: GalNAc(b1-3)Gal
# Method in brief: as §1
# [34] = molecular target: GalNAc(b1-3)Gal(a1-4)Gal(b1-4)GlcNAc
# Method in brief: as §1
# [35] = molecular target: GalNAc(b1-3)Gal(a1-4)Gal(b1-4)GlcNAc(b1-3)Gal(b1-4)Glc
# Method in brief: as §1
# [36] = molecular target: GalNAc(b1-3)GalNAc
# Method in brief: as §1
# [37] = molecular target: GalNAc(b1-4)GlcNAc
# Method in brief: as §1
# [38] = molecular target: GalNAc(b1-4)GlcNAc(b1-2)Man(a1-3)[GalNAc(b1-4)GlcNAc(b1-2)Man(a1-6)]Man(b1-4)GlcNAc(b1-4)GlcNAc
# Method in brief: as §1
binder,measurement,setting,value
"Ficolin B (Rattus norvegicus), P57756 (protein) MVLGSAALFVLSLCVTELTLHAADTCPEVKVLDLEGSNKLTILQGCPGLPGALGPKGEAGAKGDRGESGLPGHPGKAGPTGPKGDRGEKGVRGEKGDTGPSQSCATGPRTCKELLTRGYFLTGWYTIYLPDCRPLTVLCDMDTDGGGWTVFQRRIDGTVDFFRDWTSYKQGFGSQLGEFWLGNDNIHALTTQGTNELRVDLADFDGNHDFAKYSSFQIQGEAEKYKLILGNFLGGGAGDSLTSQNNMLFSTKDQDNDQGSSNCAVRYHGAWWYSDCHTSNLNGLYLRGLHKSYANGVNWKSWKGYNYSYKVSEMKVRLI",glycan array binding signal (z-score),[1],-0.185
same,glycan array binding signal (z-score),[2],-0.014
same,glycan array binding signal (z-score),[3],-0.213
same,glycan array binding signal (z-score),[4],-0.192
same,glycan array binding signal (z-score),[5],-0.252
same,glycan array binding signal (z-score),[6],0.105
same,glycan array binding signal (z-score),[7],-0.18
same,glycan array binding signal (z-score),[8],1.56
same,glycan array binding signal (z-score),[9],-0.121
same,glycan array binding signal (z-score),[10],-0.246
same,glycan array binding signal (z-score),[11],-0.222
same,glycan array binding signal (z-score),[12],-0.085
same,glycan array binding signal (z-score),[13],-0.108
same,glycan array binding signal (z-score),[14],-0.196
same,glycan array binding signal (z-score),[15],-0.196
same,glycan array binding signal (z-score),[16],-0.233
same,glycan array binding signal (z-score),[17],-0.232
same,glycan array binding signal (z-score),[18],-0.122
same,glycan array binding signal (z-score),[19],-0.185
same,glycan array binding signal (z-score),[20],-0.2
same,glycan array binding signal (z-score),[21],0.034
same,glycan array binding signal (z-score),[22],-0.205
same,glycan array binding signal (z-score),[23],-0.23
same,glycan array binding signal (z-score),[24],-0.225
same,glycan array binding signal (z-score),[25],-0.21
same,glycan array binding signal (z-score),[26],-0.063
same,glycan array binding signal (z-score),[27],-0.185
same,glycan array binding signal (z-score),[28],-0.115
same,glycan array binding signal (z-score),[29],-0.183
same,glycan array binding signal (z-score),[30],-0.185
same,glycan array binding signal (z-score),[31],-0.008
same,glycan array binding signal (z-score),[32],-0.197
same,glycan array binding signal (z-score),[33],-0.192
same,glycan array binding signal (z-score),[34],-0.2
same,glycan array binding signal (z-score),[35],-0.236
same,glycan array binding signal (z-score),[36],-0.048
same,glycan array binding signal (z-score),[37],-0.19
same,glycan array binding signal (z-score),[38],-0.131
